Some of the results follow.
How the values were obtained:
Test in all cases: glycan array binding signal (z-score within array); higher = stronger binding
Settings in all cases: glycan notation: IUPAC condensed, linker removed
[1] = biological target: Fuc(a1-2)Gal(b1-4)GlcNAc(b1-3)Gal(b1-4)GlcNAc(b1-3)Gal(b1-4)GlcNAc
In short: (§1)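 Negative Z-scores can be read as non-binding. The Z-score is calculated within each array and then averaged across arrays of one protein sequence at different concentrations or buffers and across linkers. Arrays, 3228 in all, were curated from the Consortium for Functional Glycomics database and kept only where the protein sequence was available.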

[2] = biological target: Fuc(a1-2)Gal(b1-4)GlcNAc(b1-3)GalNAc
In short: as §1

[3] = biological target: Fuc(a1-2)Gal(b1-4)GlcNAc(b1-3)[Fuc(a1-2)Gal(b1-4)GlcNAc(b1-6)]GalNAc
In short: as §1

[4] = biological target: Fuc(a1-2)Gal(b1-4)GlcNAc(b1-3)[Fuc(a1-3)[Gal(b1-4)]GlcNAc(b1-6)]Gal(b1-4)Glc
In short: as §1

[5] = biological target: Fuc(a1-2)Gal(b1-4)GlcNAc(b1-6)GalNAc
In short: as §1

[6] = biological target: Fuc(a1-2)Gal(b1-4)GlcNAc6S
In short: as §1

[7] = biological target: Fuc(a1-2)Gal(b1-4)[Fuc(a1-3)]GlcNAc
In short: as §1

[8] = biological target: Fuc(a1-2)Gal(b1-4)[Fuc(a1-3)]GlcNAc(b1-2)Man(a1-3)[Fuc(a1-2)Gal(b1-4)[Fuc(a1-3)]GlcNAc(b1-2)Man(a1-6)]Man(b1-4)GlcNAc(b1-4)[Fuc(a1-6)]GlcNAc
In short: as §1

[9] = biological target: Fuc(a1-2)Gal(b1-4)[Fuc(a1-3)]GlcNAc(b1-2)[Fuc(a1-2)Gal(b1-4)[Fuc(a1-3)]GlcNAc(b1-4)]Man(a1-3)[Fuc(a1-2)Gal(b1-4)[Fuc(a1-3)]GlcNAc(b1-2)Man(a1-6)]Man(b1-4)GlcNAc(b1-4)GlcNAc
In short: as §1

[10] = biological target: Fuc(a1-2)Gal(b1-4)[Fuc(a1-3)]GlcNAc(b1-3)Gal(b1-4)[Fuc(a1-3)]GlcNAc
In short: as §1

[11] = biological target: Fuc(a1-2)Gal(b1-4)[Fuc(a1-3)]GlcNAc(b1-3)Gal(b1-4)[Fuc(a1-3)]GlcNAc(b1-3)Gal(b1-4)[Fuc(a1-3)]GlcNAc
In short: as §1

[12] = biological target: Fuc(a1-2)Gal(b1-4)[Fuc(a1-3)]GlcNAc(b1-3)GalNAc
In short: as §1

[13] = biological target: Fuc(a1-2)Gal(b1-4)[Fuc(a1-3)]GlcNAc(b1-3)[Neu5Ac(a2-6)Gal(b1-4)GlcNAc(b1-6)]Gal(b1-4)Glc
In short: as §1

[14] = biological target: Fuc(a1-2)Gal3S(b1-4)GlcNAc
In short: as §1

[15] = biological target: Fuc(a1-2)Gal6S(b1-3)GlcNAc
In short: as §1

[16] = biological target: Fuc(a1-2)Gal6S(b1-3)GlcNAc6S
In short: as §1

[17] = biological target: Fuc(a1-2)Gal6S(b1-4)Glc
In short: as §1

[18] = biological target: Fuc(a1-2)Gal6S(b1-4)Glc6S
In short: as §1

[19] = biological target: Fuc(a1-2)[Gal(a1-3)]Gal
In short: as §1

[20] = biological target: Fuc(a1-2)[Gal(a1-3)]Gal(b1-3)GalNAc
In short: as §1

[21] = biological target: Fuc(a1-2)[Gal(a1-3)]Gal(b1-3)GalNAc(b1-3)Gal(a1-4)Gal(b1-4)Glc
In short: as §1

[22] = biological target: Fuc(a1-2)[Gal(a1-3)]Gal(b1-3)GlcNAc
In short: as §1

[23] = biological target: Fuc(a1-2)[Gal(a1-3)]Gal(b1-3)GlcNAc(b1-2)Man(a1-3)[Fuc(a1-2)[Gal(a1-3)]Gal(b1-3)GlcNAc(b1-2)Man(a1-6)]Man(b1-4)GlcNAc(b1-4)GlcNAc
In short: as §1

[24] = biological target: Fuc(a1-2)[Gal(a1-3)]Gal(b1-3)GlcNAc(b1-2)Man(a1-3)[Fuc(a1-2)[Gal(a1-3)]Gal(b1-3)GlcNAc(b1-2)Man(a1-6)]Man(b1-4)GlcNAc(b1-4)[Fuc(a1-6)]GlcNAc
In short: as §1

[25] = biological target: Fuc(a1-2)[Gal(a1-3)]Gal(b1-3)GlcNAc(b1-3)GalNAc
In short: as §1

[26] = biological target: Fuc(a1-2)[Gal(a1-3)]Gal(b1-3)GlcNAc(b1-6)GalNAc
In short: as §1

[27] = biological target: Fuc(a1-2)[Gal(a1-3)]Gal(b1-4)Glc
In short: as §1

[28] = biological target: Fuc(a1-2)[Gal(a1-3)]Gal(b1-4)GlcNAc
In short: as §1

[29] = biological target: Fuc(a1-2)[Gal(a1-3)]Gal(b1-4)GlcNAc(b1-2)Man
In short: as §1

[30] = biological target: Fuc(a1-2)[Gal(a1-3)]Gal(b1-4)GlcNAc(b1-2)Man(a1-3)[Fuc(a1-2)[Gal(a1-3)]Gal(b1-4)GlcNAc(b1-2)Man(a1-6)]Man(b1-4)GlcNAc(b1-4)GlcNAc
In short: as §1

[31] = biological target: Fuc(a1-2)[Gal(a1-3)]Gal(b1-4)GlcNAc(b1-2)Man(a1-3)[Fuc(a1-2)[Gal(a1-3)]Gal(b1-4)GlcNAc(b1-2)Man(a1-6)]Man(b1-4)GlcNAc(b1-4)[Fuc(a1-6)]GlcNAc
In short: as §1

[32] = biological target: Fuc(a1-2)[Gal(a1-3)]Gal(b1-4)GlcNAc(b1-3)GalNAc
In short: as §1

[33] = biological target: Fuc(a1-2)[Gal(a1-3)]Gal(b1-4)GlcNAc(b1-3)[Fuc(a1-2)[Gal(a1-3)]Gal(b1-4)GlcNAc(b1-6)]GalNAc
In short: as §1

[34] = biological target: Fuc(a1-2)[Gal(a1-3)]Gal(b1-4)GlcNAc(b1-6)GalNAc
In short: as §1

[35] = biological target: Fuc(a1-2)[Gal(a1-3)]Gal(b1-4)[Fuc(a1-3)]Glc
In short: as §1

[36] = biological target: Fuc(a1-2)[Gal(a1-3)]Gal(b1-4)[Fuc(a1-3)]GlcNAc
In short: as §1

[37] = biological target: Fuc(a1-2)[Gal(a1-3)]Gal(b1-4)[Fuc(a1-3)]GlcNAc(b1-3)GalNAc
In short: as §1

B1: Cohesin-mDC-ASGPR (Macaca mulatta) (protein)
chain: LDITSHHHHHHDDLDAVRIKVDTVNAKPGDTVRIPVRFSGIPSKGIANCDFVYSYDPNVLEIIEIEPGDIIVDPNPDKSFDTAVYPDRKIIVFLFAEDSGTGAYAITKDGVFATIVAKVKEGAPNGLSVIKFVEVGGFANNDLVEQKTQFFDGGVNVGDTTEPATPTTPVTTPTTTDDLDAASSQNSKFQRDLVTLRTDFSNFTSNTVAEIQALTSQGSSVEEMIASLKAEVEVIKQEQQAVHSEMLLRVQRLMQDLNKLTCQVATLKNNASTERTCCPVNWVEHQDSCYWFSRSGMPWAEAEKHCQLENAHLVVINSREEQNFVQEHLSFAYTWMGLSDREGAWKWVDGTDYETGFQNWKPGQPDDWQGHGLGGGEDCAHFHPDGRWNDDVCQRPYYWVCEAGLTQASQESH
- glycan array binding signal (z-score) [1]: -0.415
- glycan array binding signal (z-score) [2]: -0.361
- glycan array binding signal (z-score) [3]: 0.249
- glycan array binding signal (z-score) [4]: -0.434
- glycan array binding signal (z-score) [5]: 2.78
- glycan array binding signal (z-score) [6]: -0.411
- glycan array binding signal (z-score) [7]: -0.404
- glycan array binding signal (z-score) [8]: -0.222
- glycan array binding signal (z-score) [9]: -0.21
- glycan array binding signal (z-score) [10]: -0.421
- glycan array binding signal (z-score) [11]: -0.327
- glycan array binding signal (z-score) [12]: -0.31
- glycan array binding signal (z-score) [13]: -0.41
- glycan array binding signal (z-score) [14]: -0.39
- glycan array binding signal (z-score) [15]: -0.382
- glycan array binding signal (z-score) [16]: 0.635
- glycan array binding signal (z-score) [17]: -0.401
- glycan array binding signal (z-score) [18]: -0.339
- glycan array binding signal (z-score) [19]: -0.399
- glycan array binding signal (z-score) [20]: -0.412
- glycan array binding signal (z-score) [21]: -0.416
- glycan array binding signal (z-score) [22]: -0.25
- glycan array binding signal (z-score) [23]: -0.41
- glycan array binding signal (z-score) [24]: -0.388
- glycan array binding signal (z-score) [25]: -0.392
- glycan array binding signal (z-score) [26]: 2.27
- glycan array binding signal (z-score) [27]: -0.388
- glycan array binding signal (z-score) [28]: -0.392
- glycan array binding signal (z-score) [29]: -0.34
- glycan array binding signal (z-score) [30]: -0.431
- glycan array binding signal (z-score) [31]: -0.329
- glycan array binding signal (z-score) [32]: -0.396
- glycan array binding signal (z-score) [33]: -0.357
- glycan array binding signal (z-score) [34]: -0.353
- glycan array binding signal (z-score) [35]: -0.407
- glycan array binding signal (z-score) [36]: -0.41
- glycan array binding signal (z-score) [37]: -0.411

Reference: the supplement of paper PMC8728848
